In patent publication US20250049932A1, “CYTOTOXICITY TARGETING CHIMERAS FOR FOLATE RECEPTOR-EXPRESSING CELLS” (GLAXOSMITHKLINE INTELLECTUAL PROPERTY DEVELOPMENT LIMITED, priority 2022, published 2025):

Target: T1, FOLR (Homo sapiens, UniProt P15328)
T1 construct: Target cells: IGROV1 cells (typically 1000-20,000 cells per well); endogenous in cells; host or cells: IGROV1 cells
Assay: Antibody dependent cellular cytotoxicity (ADCC) reporter assay
Assay type: cell-based
Details: IGROV1 target cells; anti-cotinine antibody (SEQ ID NO: 11/12, human IgG1 Fc S239D/I332E); Jurkat FcγRIIIa NFAT-luciferase reporter cells; about 12-18 hours; one value per experimental run; EC50 in molar (M); footnote: pEC50 < 5 = inactive
Description: An antibody dependent cellular cytotoxicity (ADCC) reporter assay was conducted using the following four assay components: (i) ARM compound of Formula (I) targeting FOLR (concentrations ranging from 1 pM to 10 μM); (ii) anti-cotinine antibody having a heavy chain sequence of SEQ ID NO: 11 and a light chain sequence of SEQ ID NO: 12 (rabbit variable region with human IgG1 Fc domain containing DE mutation (S239D/I332E)) (concentrations ranging from 0.01 μg/mL-200 μg/mL); (iii) Target cells: IGROV1 cells (typically 1000-20,000 cells per well); and (iv) Reporter cells—Jurkat cells engineered to express FcγRIIIa with a reporter gene luciferase under the control of the NFAT promoter (typically 3000-75,000 cells per well). Reagents were combined in final volume of 20 μL in 384-well tissue culture treated plate. […]
Luminescence signal was measured on a microplate reader capable of measuring luminescence and signal: background was calculated by dividing the signal of a test well by the signal obtained when no compound of formula (I) was included in the assay. […]
ARMs compounds of Formula (I) were tested for ADCC activity in the above assay in one or more experimental runs and the results are shown in Table 3 below. […] The pEC50 value is the negative log of the EC50 value, wherein the EC50 value is half maximal effective concentration measured in molar (M). […]

T1 sequence (P15328 25-234 limits assumed): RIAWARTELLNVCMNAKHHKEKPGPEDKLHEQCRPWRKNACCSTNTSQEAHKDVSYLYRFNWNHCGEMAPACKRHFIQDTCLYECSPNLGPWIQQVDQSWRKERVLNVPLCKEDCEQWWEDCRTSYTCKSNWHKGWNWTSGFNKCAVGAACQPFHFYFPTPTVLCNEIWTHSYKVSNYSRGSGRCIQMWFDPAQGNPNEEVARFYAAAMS

SMILES: CN1C(=O)C[C@H](C(=O)NCCOCCOCCOCCOCCOCCOCCOCCOCCOCCOCCOCCOCCC(=O)NCCNC(=O)CC[C@H](NC(=O)c2ccc(NCc3cnc4nc(N)[nH]c(=O)c4n3)cc2)C(=O)O)[C@H]1c1cccnc1 [Example 3]
- EC50: 39.8 nM and 631 nM [one cell]

Certain results were filed several times, with different values. They are shown here; other results are not. An entry can have further records. Values that stand side by side appear to be repeats (runs, samples, wells or individuals).
